Data reported in PubChem BioAssay AID540317 (National Center for Advancing Translational Sciences (NCATS), 2011).
Among all 390,000 compounds or so, about 2,200 (0.56%) were called active. Inconclusive means that the source gave no clear call. Such entries were picked first, then a sample of the others. Calls come from the whole dose curve; as a rule, active = well fitted inhibition curve with a large enough effect; inconclusive = small, poorly fitted or top-dose-only effect; inactive = no such curve, though single readings can be large or run the other way. A potency beside an inconclusive call is a rough fit, not a confirmed value.

Biological target: Chromobox protein homolog 1 (Homo sapiens) (UniProt P83916)
Assay: HTS for Inhibitors of HP1-beta Chromodomain Interactions with Methylated Histone Tails; note: nearly all actives have a fitted effect of over 70% in size
Conditions: AlphaScreen HP1-beta / biotin-H3K9me3 peptide binding; series mostly up to 114 µM
How it was run: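 Compound inhibition of the preformed complex between 50 nM HP1-beta and 50 nM biotinylated H3K9me3 peptide was read by AlphaScreen. Buffer was PBS pH 7.4 with 0.01% Tween-20. Incubations ran 30 min at room temperature, with 10 ug/mL donor/acceptor beads.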
Potency is the fitted concentration of half-maximal effect; tags give direction and shape of the fitted curve.

UniProt P83916, sequence (P83916 whole entry, looked up): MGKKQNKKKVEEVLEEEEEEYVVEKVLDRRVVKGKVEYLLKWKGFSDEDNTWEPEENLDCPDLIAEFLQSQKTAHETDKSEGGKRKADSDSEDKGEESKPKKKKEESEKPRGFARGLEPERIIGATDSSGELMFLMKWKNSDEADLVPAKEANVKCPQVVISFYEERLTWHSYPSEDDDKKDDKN

Compound	Potency
COc1ccc(C(Nc2ccc(S(=O)(=O)NCC3CCCO3)cc2)C(=O)NC(C)(C)C)cc1OC (configuration not stated)	inconclusive: 89.1 µM [inhibitor, single point]
CCOC(=O)CN1CC23C=CC(O2)C(C(=O)Nc2ccc(OC)cc2OC)C3C1=O (configuration not stated)	inactive
COc1ccccc1C(CNC(=O)CNC(=O)c1cccc(Cl)c1)N1CCCC1 (configuration not stated)	inactive
CC1(OC(=O)c2cccs2)C(=O)C=C2C=C3CCCN3C=C2C1=O (configuration not stated)	inconclusive: 50.1 µM [inhibitor, partial curve]
Cc1ccc(-c2nnc(Nc3ccc(Cl)cc3)c3ccccc23)cc1S(=O)(=O)N1CCOCC1	inactive
COc1ccccc1C(=O)NC(=S)Nc1cccnc1Cl	inconclusive: 50.1 µM [inhibitor, partial curve, poor fit]
Cc1ccc(NC(=O)Cn2c(=O)n(CCC(=O)NCCc3ccccc3)c(=O)c3ccccc32)cc1	inactive
COc1ccc(CN(Cc2ccccc2)C(=O)Nc2ccccc2)cc1COc1ccc(NC(C)=O)cc1	inactive
Nc1nc(-c2ccccc2)c(N=Nc2cccnc2)s1	inconclusive: 8.91 µM [inhibitor, partial curve, poor fit]
COc1cc(-c2nc(-c3ccccc3)c(-c3cccs3)[nH]2)cc(OC)c1O	inconclusive: 22.4 µM [inhibitor, single point]
COc1ccc(NC(=O)c2c(N)c(C(=O)c3ccc(C)cc3)n3ccccc23)cc1OC	inactive
COc1cc(OC)nc(NC(=O)CN2CCN(c3ccc(F)cc3)CC2)n1	inactive
O=C(c1ccc([N+](=O)[O-])s1)N1CCCc2ccccc21	inconclusive: 56.2 µM [inhibitor, partial curve, poor fit]
CCOC(=O)C1=C(C)Nc2ccc(C)cc2S1	inconclusive: 39.8 µM [inhibitor, full curve]
COc1ccccc1C1C2=C(N=c3s/c(=C/c4cccc(OCC(=O)O)c4)c(=O)n31)c1ccccc1CC2 (configuration not stated)	inconclusive: 44.7 µM [inhibitor, partial curve, poor fit]
O=C(CCNS(=O)(=O)c1ccc2c(c1)CCN2C(=O)C1CC1)N1CCN(c2ccc(F)cc2)CC1	inactive
CN(C)C(=O)CSc1nc(-c2ccccc2)c(-c2ccccc2)o1	inconclusive: 22.4 µM [inhibitor, full curve]
O=C(Cc1cc(=O)[nH]c(=O)[nH]1)NCc1ccccc1	inactive
CCOc1ccc(Nc2ccc(N)c(S(=O)(=O)O)c2)cc1	active: 50.1 µM
COc1ccc(CNC(=O)C2CCN(c3nc4ccc(C)cc4[nH]3)CC2)cc1	inactive
C/C(=N\Nc1ccc([N+](=O)[O-])cc1)c1cccc(N)c1	inconclusive: 39.8 µM [inhibitor, partial curve]
CCCCN(NC(C)=O)c1nc(Cl)nc(NC(C)C)n1	inactive
O=C1C(Nc2ccccc2)=C(N2CCCCC2)C(=O)c2ccccc21	inconclusive: 28.2 µM [inhibitor, full curve, poor fit]
Cc1ccc(S(=O)(=O)Nc2ccc(C(=O)NCCCn3ccnc3)cc2)cc1[N+](=O)[O-]	inactive

Compound	Potency
O=C(/C=C/c1ccccc1[N+](=O)[O-])N1CCOCC1	inactive
C=CC(=O)Nc1sc2c(c1C(N)=O)CCCC2	inactive
Cc1ccc(C(=O)Nc2nnc(-c3ccco3)o2)cc1C	inactive
COc1cc(Nc2c3ccccc3nc3ccccc23)cc(OC)c1OC	inconclusive: 44.7 µM [inhibitor, partial curve]
CCOc1ccc(CNC(=O)C2CCCN(S(=O)(=O)c3ccc4c(c3)CCCC(=O)N4)C2)cc1 (configuration not stated)	inactive
Cc1cccc(-c2nc(SCC(=O)Nc3cccc(C(F)(F)F)c3)n3[nH]c(=O)cc3n2)c1	inconclusive: 89.1 µM [inhibitor, single point]
COc1ccccc1N1CCN(/N=C/c2c(C)nn(-c3ccccc3)c2C)CC1	active: 17.8 µM
COC(=O)c1c(-c2ccccc2)csc1NC1=NS(=O)(=O)c2ccccc21	inactive
Cc1cccc2sc(N(CCN(C)C)C(=O)C3CCN(S(=O)(=O)c4cccs4)CC3)nc12	inconclusive: 56.2 µM [inhibitor, partial curve]
CCCS(=O)(=O)N1CCN(Cc2ccc(OCc3ccccc3)c(OC)c2)CC1	inconclusive: 79.4 µM [inhibitor, single point]
COc1ccc(C=C(c2nc3ccccc3s2)c2nc3ccccc3s2)cc1O	inconclusive: 28.2 µM [inhibitor, partial curve]
CN(CCCN(Cc1ccc(Cl)cc1)c1ccc(Br)cn1)C(=S)NCCCc1cnc[nH]1	inconclusive: 50.1 µM [inhibitor, partial curve]
O=[N+]([O-])c1cccc(NNS(=O)(=O)c2ccccc2F)c1	inconclusive: 39.8 µM [inhibitor, partial curve]
CCCCNc1ncnc2oc(-c3ccco3)c(-c3ccco3)c12	inconclusive: 31.6 µM [inhibitor, partial curve]
COc1ccc(C2NC(c3ccc(OC)cc3)C([N+](=O)[O-])C(C)(C)C2[N+](=O)[O-])cc1 (configuration not stated)	inactive
COc1ccc(C2c3[nH]c4ccccc4c3CCN2Cc2cccn2-c2ncccn2)cc1C (configuration not stated)	inconclusive: 39.8 µM [inhibitor, partial curve]
COC(=O)C1=C(C)N(c2ccc(C)cc2)/C(=C/c2cccs2)C1=O	inactive
c1ccc2sc(SCSc3nc4ccccc4s3)nc2c1	inactive
COCC1CCN(C(=O)c2cc(COc3ccc(OC)c4ccccc34)on2)C1 (configuration not stated)	inconclusive: 50.1 µM [inhibitor, partial curve, poor fit]
Cc1cc(SCC(=O)c2cccc([N+](=O)[O-])c2)nc(=O)[nH]1	inconclusive: 17.8 µM [inhibitor, partial curve, poor fit]
O=[N+]([O-])c1c(NCCO)cc(N2CCCCC2)c2nonc12	inactive
COc1ccc(S(=O)(=O)N2CCC(N3CCN(Cc4ccccc4)CC3)CC2)cc1	inconclusive: 14.1 µM [inhibitor, partial curve, poor fit]
COc1cc(/C=N/NC(=O)c2ccc(COc3ccccc3Cl)o2)cc(Br)c1O	inactive
CCOC(=O)N1CCC(N2CCN(Cc3ccc(C)o3)C(CCO)C2)CC1 (configuration not stated)	inconclusive: 14.1 µM [inhibitor, partial curve, poor fit]

Compound	Potency
Nc1ncc(-c2ccccc2)c(-c2ccc(OCc3ccccc3)cc2O)n1	inconclusive: 50.1 µM [inhibitor, partial curve, poor fit]
CN(C)c1ccc(C(CNS(=O)(=O)c2ccc(Br)cc2)N2CCCC2)cc1 (configuration not stated)	inconclusive: 44.7 µM [inhibitor, partial curve]
COc1ccc(OCc2n[nH]c(=S)n2N)cc1	active: 10 µM
O=C(Nc1ccccc1)N1CCN(Cc2ccccc2)CC1	inconclusive: 39.8 µM [inhibitor, partial curve]
Nc1ccc2cc3ccccc3cc2c1	inactive
O=[N+]([O-])c1cc([N+](=O)[O-])c(Oc2cncc(Cl)c2)cc1NC1CCCCCCC1	inconclusive: 7.94 µM [inhibitor, full curve]
Cc1[nH][nH]c(=O)c1[C@@H](c1ccccc1[N+](=O)[O-])C(C#N)C#N	inactive
Cc1ccc(-n2c(C)cc(C(=O)Cn3nc(C(=O)O)c4ccccc4c3=O)c2C)cc1	inactive
Nc1cc([N+](=O)[O-])ccc1O	inconclusive: 89.1 µM [inhibitor, single point]
O=C(O)c1ccccc1/C=N/NC(=O)c1cc(-c2ccco2)nc2ccccc12	inconclusive: 50.1 µM [inhibitor, partial curve]
CC(C)CNc1ncnc2oc(-c3ccco3)c(-c3ccco3)c12	inconclusive: 11.2 µM [inhibitor, partial curve, poor fit]
O=C(NNc1ccc([N+](=O)[O-])cc1[N+](=O)[O-])c1ccco1	inconclusive: 44.7 µM [inhibitor, partial curve]
CN1CCN(S(=O)(=O)c2ccc(N(C)Cc3ccc(OC(F)F)cc3)c([N+](=O)[O-])c2)CC1	inconclusive: 50.1 µM [inhibitor, partial curve]
CCOc1cc(/C=C(\C#N)C(=O)Nc2ccc(S(N)(=O)=O)cc2)ccc1OCCN1CCOCC1	inactive
C=CCn1c(SCc2cc(=O)n3cc(C)ccc3n2)nnc1-c1ccc(F)cc1	inactive
O=[N+]([O-])c1cc(CN2CCCCCC2)ccc1O	inactive
CCNC(=O)NC(=O)COC(=O)c1ccccc1SCC(=O)NC(=O)NCC	inconclusive: 7.08 µM [inhibitor, single point]
COc1ccc(OC)c(NC2=C(Cl)C(=O)N(Cc3ccccc3)C2=O)c1	inconclusive: 20 µM [inhibitor, full curve]
CCOC(=O)C1(C)NC(c2ccccc2F)C2C(=O)N(c3cccc(C(C)=O)c3)C(=O)C21 (configuration not stated)	inconclusive: 6.31 µM [inhibitor, full curve]
CCOC(=O)/C(C#N)=C\c1cc(OC)c(OC)cc1[N+](=O)[O-]	inconclusive: 6.31 µM [inhibitor, full curve, poor fit]
Cc1ccc2c(c1)nnn2C1CCN(CC(=O)N2c3ccccc3CC2C)CC1 (configuration not stated)	inactive
O=[N+]([O-])c1cc([N+](=O)[O-])c2cccnc2c1Oc1ccccc1O	active: 70.8 µM
CCN(CC)c1ccc(NC(=O)c2cc(Cl)ccc2OC)cc1	active: 35.5 µM
COC(=O)c1cc(=O)n(Cc2ccco2)c(=Nc2ccc(F)cc2)s1	inconclusive: 31.6 µM [inhibitor, partial curve]
